The whole screen tested about 1,200 compounds, of which about 10 (0.8%) were called active. About 4% were inconclusive and are not listed. Calls follow the shape of the dose curve; as a rule, active = well fitted inhibition curve with a large enough effect; inconclusive = small, poorly fitted or top-dose-only effect; inactive = no such curve, though single readings can be large or run the other way. This is one part of the list.
test: qHTS Assay to Find Inhibitors of Chronic Active B-Cell Receptor Signaling: Hit Validation in OCI-Ly3 Assay; conditions: OCI-Ly3 IkB-luciferase reporter, Chroma-Glo luminescence, 4 h; series mostly up to 46.1 µM; activity change, negative = inhibition: at the top concentration
How it was run: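 OCI-Ly3 cells in IMDM with 0.5% FBS get compound plus 80ng/ml doxycycline (dispensed solution), 4 hrs at 37C. Chroma-Glo read of green IkB-luc and red unfused luc; green/red ratio normalized to basal (0%) and 10 uM MG-132 (100%); concentration-response curves for each signal.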
% is scaled to controls: 0 for no effect and ±100 for the full control effect; potency is read from the fitted curve at half-maximal effect.

Q: For `Cc1ccccc1NC(=S)NCc1ccc2[nH]c3c(c2c1)CCCC3`, which “activity change, negative = inhibition” value is on record?
A: The value was inactive: -3.94%.

Q: With `Cc1cccc(N(C)S(=O)(=O)c2ccc(-c3cnc(C4CC4)o3)cc2)c1` as the compound, how does the “activity change, negative = inhibition” value read?
A: Its value is inactive: -6.59%.

Q: With `C=CCNC(=S)N/N=C/c1ccc(C(F)(F)F)cc1` as the compound, how does the “activity change, negative = inhibition” value read?
A: Its value is inactive: 0.09%.

Q: For `COc1cc(OC)c2c(=O)cc(-c3cccnc3)oc2c1`, which “activity change, negative = inhibition” value is on record?
A: The value was inactive: -1.26%.

Q: Which “activity change, negative = inhibition” value does the source give for `COc1ccc(C(=O)c2cc([N+](=O)[O-])ccc2N2CCOCC2)cc1` here?
A: Its value is inactive: -2.38%.

Q: With `C[C@H]1C[C@@H]2[C@H]([C@@H](O)C[C@@]3(C)[C@H]2CC[C@]3(O)C(=O)CO)[C@@]2(C)C=CC(=O)C=C12` as the compound, how does the “activity change, negative = inhibition” value read?
A: The value was inactive: -1.52%.

Q: For `Cc1cc(Cl)n2c(nc3ccccc32)c1C#N`, which “activity change, negative = inhibition” value is on record?
A: The value was inactive: -0.275%.

Q: For `Cc1ccc(/C=N/NC(=O)c2cc(-c3ccncc3)nc3ccccc23)o1`, which “activity change, negative = inhibition” value is on record?
A: The value was inactive: -1.7%.

Q: With `Cc1ccc([N+](=O)[O-])cc1N=Nc1c(-c2ccc([N+](=O)[O-])cc2)[nH]n(C(N)=S)c1=O` as the compound, how does the “activity change, negative = inhibition” value read?
A: Its value is inactive: -0.101%.

Q: With `Cc1c(C(=O)Oc2cccc3cccnc23)oc2ccccc12` as the compound, how does the “activity change, negative = inhibition” value read?
A: The value was inactive: -1.68%.

Q: Which “activity change, negative = inhibition” value does the source give for `CCOc1cc(C(=O)N/N=C/C2CC=CCC2)cc(OCC)c1OCC` (stereo not drawn) here?
A: The value was inactive: -1.59%.

Q: For `CC(/C=C/c1ccccc1)=N\NC(N)=S`, which “activity change, negative = inhibition” value is on record?
A: Its value is inactive: 1.46%.

Q: For `O=Cc1cc2ccccc2nc1SCc1ccc(Cl)c(Cl)c1`, which “activity change, negative = inhibition” value is on record?
A: Its value is inactive: 0.887%.

Q: With `COc1cccc(N2CC(O)=C(c3nc4ccccc4s3)C2=N)c1` as the compound, how does the “activity change, negative = inhibition” value read?
A: Its value is inactive: -1.44%.

Q: For `CC1CCCCN1C(=S)NC(=O)c1cccs1` (stereo not drawn), which “activity change, negative = inhibition” value is on record?
A: Its value is inactive: -0.618%.

Q: With `CCOc1ccc(CCNC(=O)c2cc(=O)[nH]c3ccc(S(=O)(=O)N4CCCCC4C)cc23)cc1OCC` (stereo not drawn) as the compound, how does the “activity change, negative = inhibition” value read?
A: The value was inactive: -1.29%.

Q: Which “activity change, negative = inhibition” value does the source give for `C=CCOc1ccc2ccccc2c1CNn1c(C)n[nH]c1=S` here?
A: Its value is inactive: 0.974%.

Q: For `O=C(N1CCN(c2ccccn2)CC1)N1c2ccccc2Sc2ccccc21`, which “activity change, negative = inhibition” value is on record?
A: Its value is inactive: -2.7%.

Q: For `Cc1c(C(=O)N/N=C/c2ccc(Cl)cc2)[nH]c2ccc(Cl)cc12`, which “activity change, negative = inhibition” value is on record?
A: Its value is inactive: -5.19%.

Q: With `COc1ccc2c(C#CCCO)c(-c3ccc(S(C)(=O)=O)cc3)sc2c1` as the compound, how does the “activity change, negative = inhibition” value read?
A: The value was inactive: 0.142%.

Q: For `COc1cc(C(=O)N/N=C(\Cc2ncc[nH]2)c2ccccc2)cc(OC)c1OC`, which “activity change, negative = inhibition” value is on record?
A: Its value is inactive: -0.575%.

Q: With `N#CC1=C(N)C(C#N)(C#N)[C@H](c2cccnc2)[C@H]2CN(C(=O)OCc3ccccc3)CC=C12` as the compound, how does the “activity change, negative = inhibition” value read?
A: Its value is inactive: -3.21%.

Q: For `N#Cc1c(NC(=O)CSc2ncn[nH]2)sc2c1CCCC2`, which “activity change, negative = inhibition” value is on record?
A: Its value is inactive: -0.226%.

Q: Which “activity change, negative = inhibition” value does the source give for `N#Cc1c(NC(=O)/C=C/c2ccco2)sc2c1CCCC2` here?
A: The value was inactive: -2.35%.

Q: For `Cc1ncc(CO)c2c1Oc1nc(-c3ccccc3)nc(SCC(=O)N3CCOCC3)c1C2`, which “activity change, negative = inhibition” value is on record?
A: The value was inactive: -2.91%.

Q: For `COCCNC(=S)N/N=C(\C)c1ccc(Cl)s1`, which “activity change, negative = inhibition” value is on record?
A: Its value is inactive: -1.77%.

Q: Which “activity change, negative = inhibition” value does the source give for `CC[C@]12c3[nH]c4cc(CCC(=O)N(C)C)ccc4c3CCN1C(=O)[C@@H](CC(=O)NCc1ccco1)C[C@@H]2C(=O)N1CCN(C(=O)c2ccco2)CC1` here?
A: The value was inactive: -1.86%.

Q: Which “activity change, negative = inhibition” value does the source give for `CCOc1c(OC)cccc1C1CC(=O)Nc2cc(OC)c(OC)cc21` (stereo not drawn) here?
A: The value was inactive: -0.312%.

Q: With `COc1ccc(Nc2nc(N)nc(CCl)n2)cc1` as the compound, how does the “activity change, negative = inhibition” value read?
A: Its value is inactive: 0.223%.

Q: Which “activity change, negative = inhibition” value does the source give for `CC1CCc2c(sc(NC(=O)CSc3nc(N)cc(=O)[nH]3)c2C(N)=O)C1` (stereo not drawn) here?
A: Its value is inactive: -5.77%.

Q: Which “activity change, negative = inhibition” value does the source give for `CCOC(=O)c1c(C)[nH]c(C(=O)N/N=C/c2ccc(Br)cc2)c1C` here?
A: The value was inactive: -0.24%.

Q: Which “activity change, negative = inhibition” value does the source give for `Cc1cc(C(=O)N/N=C/c2ccc(N(C)C)cc2)c2ccccc2n1` here?
A: The value was inactive: -0.328%.

Q: Which “activity change, negative = inhibition” value does the source give for `C/C(=N\NC(=O)C(C)n1nc(C)c([N+](=O)[O-])c1C)c1ccccc1O` (stereo not drawn) here?
A: Its value is inactive: -0.129%.

Q: Which “activity change, negative = inhibition” value does the source give for `C/C(=N/NC(=O)COc1cc(C)ccc1C(C)C)C(=O)O` here?
A: The value was inactive: -0.653%.

Q: For `CCCCN(C(=O)CSc1nc2ccccc2n1CC)C1CCS(=O)(=O)C1` (stereo not drawn), which “activity change, negative = inhibition” value is on record?
A: Its value is inactive: 0.871%.

Q: With `CCCCn1c(-c2csc(C(C)C)c2)n[nH]c1=S` as the compound, how does the “activity change, negative = inhibition” value read?
A: Its value is inactive: -0.709%.

Q: Which “activity change, negative = inhibition” value does the source give for `COc1cc(/C=N/NC(=O)NC2CCCCC2)ccc1O` here?
A: The value was inactive: -1.04%.

Q: Which “activity change, negative = inhibition” value does the source give for `CC1(C)Cc2c(sc3ncnc(NNC(=S)NCc4ccccc4)c23)CO1` here?
A: Its value is inactive: -1.54%.

Q: With `Cc1ccc(C)c(-n2c3nc(=O)[nH]c(=O)c-3cc3cc([N+](=O)[O-])ccc32)c1` as the compound, how does the “activity change, negative = inhibition” value read?
A: Its value is inactive: -7.4%.

Q: With `COc1cc2c(cc1[N+](=O)[O-])n(C(C)C)c(=O)n2C(C)C` as the compound, how does the “activity change, negative = inhibition” value read?
A: Its value is inactive: -0.244%.

Q: For `CCOc1c(Cl)cc(CNCC(C)C)cc1OC`, which “activity change, negative = inhibition” value is on record?
A: The value was inactive: -0.569%.

Q: Which “activity change, negative = inhibition” value does the source give for `CC(C)COc1ccc(C(=O)Nc2cc(S(=O)(=O)N3CCOCC3)ccc2N2CCCC2)cc1` here?
A: Its value is inactive: -0.217%.

Q: Which “activity change, negative = inhibition” value does the source give for `Cc1cccc(NC(=S)N/N=C/C(C)c2ccccc2)c1C` (stereo not drawn) here?
A: The value was inactive: -2.93%.

Q: For `CCN(CC)c1ccc2c(C)c(CO)c(=O)oc2c1`, which “activity change, negative = inhibition” value is on record?
A: Its value is inactive: -0.0824%.

Q: With `COc1ccccc1-c1cc(C(=O)Nc2cccnc2)no1` as the compound, how does the “activity change, negative = inhibition” value read?
A: Its value is inactive: 13.9%.

Q: Which “activity change, negative = inhibition” value does the source give for `O=C(NN=C(c1ccccc1)c1ccccn1)c1ccccc1` here?
A: Its value is inactive: 53%.

Q: For `Cc1cc(C(=O)OCC(=O)NCc2ccco2)c(C)n1-c1ccc(F)cc1`, which “activity change, negative = inhibition” value is on record?
A: Its value is inactive: -5.11%.

Q: Which “activity change, negative = inhibition” value does the source give for `CCONC(=O)Nc1ccccc1[N+](=O)[O-]` here?
A: The value was inactive: -0.444%.

Q: Which “activity change, negative = inhibition” value does the source give for `CCn1c(=O)c([N+](=O)[O-])c(Cl)c2ccccc21` here?
A: The value was inactive: -0.13%.

Q: Which “activity change, negative = inhibition” value does the source give for `O=C(Oc1ccc(F)cc1C(=O)/C=C/c1cccs1)c1cccc([N+](=O)[O-])c1` here?
A: The value was inactive: -4.26%.

Q: For `ClCc1nc2ccccc2c2ccccc12`, which Potency is on record?
A: The Potency was active: 13 µM.

Q: For `CCCCn1c(SCC(=O)c2cc(OC)ccc2OC)nc2cc(S(N)(=O)=O)ccc21`, which “activity change, negative = inhibition” value is on record?
A: Its value is inactive: -0.544%.

Q: Which “activity change, negative = inhibition” value does the source give for `S=c1nc2ccccc2c2nc(-c3ccccc3Br)[nH]n12` here?
A: The value was inactive: 83.2%.

Q: For `COc1cc(-c2noc(C)c2/C=C/c2ccc(N)cc2)cc(OC)c1OC`, which “activity change, negative = inhibition” value is on record?
A: Its value is inactive: -8.76%.

Q: With `Cc1c(CCC(=O)O)c(=O)oc2cc3oc4c(c3cc12)CCCC4` as the compound, how does the “activity change, negative = inhibition” value read?
A: Its value is inactive: -2.09%.

Q: With `CC1=CC(C)(C)N2C(=O)C(=O)c3cc(OC(=O)c4ccco4)cc1c32` as the compound, how does the “activity change, negative = inhibition” value read?
A: The value was inactive: -12.4%.

Q: Which “activity change, negative = inhibition” value does the source give for `CC(C)n1c(SCC(=O)Nc2ccccc2)nc2c1c(=O)n(C)c(=O)n2C` here?
A: The value was inactive: 0.254%.

Q: With `CCN1C(=O)c2cccc3c(S(=O)(=O)Nc4nc(C)cs4)ccc1c23` as the compound, how does the “activity change, negative = inhibition” value read?
A: Its value is inactive: -5.86%.

Q: Which “activity change, negative = inhibition” value does the source give for `CC(C)N1C(=O)/C(=C\c2nc3ccccc3c(=O)[nH]2)c2ccccc21` here?
A: The value was inactive: -26.8%.

Q: Which “activity change, negative = inhibition” value does the source give for `O=S(=O)(Nc1cccc2ncccc12)c1cccs1` here?
A: The value was inactive: 70%.

Q: For `COc1cc2c(cc1OC)C(/C(C#N)=N\O)=NC(C)(C)C2`, which “activity change, negative = inhibition” value is on record?
A: Its value is inactive: -0.106%.

Q: For `Cc1c(NC(=S)NC(=O)C(c2ccccc2)c2ccccc2)cccc1C(=O)O`, which “activity change, negative = inhibition” value is on record?
A: The value was inactive: 0.384%.

Q: With `OCc1ccnc2c(O)cccc12` as the compound, how does the “activity change, negative = inhibition” value read?
A: Its value is inactive: 0.198%.

Q: Which “activity change, negative = inhibition” value does the source give for `O=C(OCC(=O)c1ccc[nH]1)c1ccc(Cl)c(Cl)c1` here?
A: Its value is inactive: -3.15%.

Q: Which “activity change, negative = inhibition” value does the source give for `CCC1=Nc2cc(C(=O)NCc3cccnc3)ccc2Sc2ccc(C)cc21` here?
A: Its value is inactive: -7.04%.

Q: For `CCOc1cccc(C2CC(=O)Nc3cc(OC)c(OC)cc32)c1` (stereo not drawn), which “activity change, negative = inhibition” value is on record?
A: Its value is inactive: -0.445%.

Q: With `Clc1ccc(C2=Nn3c(nnc3-c3cc(-c4ccccc4)n[nH]3)SC2)cc1` as the compound, how does the “activity change, negative = inhibition” value read?
A: Its value is inactive: -5.82%.

Q: Which “activity change, negative = inhibition” value does the source give for `CCN(CC(=O)NCc1ccc(F)cc1)C(=O)/C=C/c1ccc(OC)c(S(=O)(=O)NC(C)C)c1` here?
A: The value was inactive: -1.47%.

From PubChem BioAssay AID651567 (National Center for Advancing Translational Sciences (NCATS), 2012)
